According to ChEMBL document CHEMBL4888484, “Replenishing the malaria drug discovery pipeline: Screening and hit evaluation of the MMV Hit Generation Library 1 (HGL1) against asexual blood stage Plasmodium falciparum ,using a nano luciferase reporter read-out” (2022):
In all, about 150,000 compounds went through this assay and about 540 (0.36%) showed an effect of 50% or more. This is one part of the list.

These compounds were tested on Plasmodium falciparum (assay: Primary screen in NF54 nanoGlo assay, in single point, at 2uM, 72h; a lower Z score goes with more inhibition). Conditions: timepoint 72 hour.
Assay type: functional, Erythrocyte

Compound | % Inhibition [%] | Z score
C[C@@H](c1nc2ccccc2c(=O)[nH]1)N1CCC(C(=O)N2CCCCCC2)CC1 | 2 | -0.24
O=c1[nH]nc2n1CC[C@@H](NS(=O)(=O)c1ccc3c(c1)CCCC3)CC2 | -17 | 2.63
COc1ccc(C2(NCc3n[nH]cc3C)CCOCC2)cc1F | -1 | 0.28
C[C@H](NC(=O)c1cncn1C)C(C)(F)F | -5 | 0.97
O=C(CN1C(=O)CCC1=O)NC[C@@H](c1ccco1)n1cccn1 | 6 | -0.87
Cc1nc(C(C)C)ccc1CN1C(=O)NC2(CCS(=O)(=O)CC2)C1=O | -12 | 1.27
COc1ccc(S(=O)(=O)N2CCN(c3nc4cc(C)ccc4[nH]3)CC2)cc1 | -16 | 2.29
CCN(CCCNC(=O)Nc1cccc(F)c1)S(C)(=O)=O | 5 | -0.58
O=C(N[C@H]1CCc2ccccc21)c1cn[nH]c1-c1ccccc1 | -6 | 0.83
Cc1ccc(C)c(NC(=O)CN2C(=O)CCn3nc(-c4cn(C)c5ccccc45)cc32)c1 | 5 | -0.89
CC[C@H](C)N(CC(=O)N(CCOC)Cc1cccn1Cc1ccccc1)C(=O)c1ccco1 | -8 | 1.33
Cc1ccc(C(=O)N2CCCn3nc(C#N)cc3C2)n1C(F)F | 4 | -0.53
COc1cccc(C(=O)N(Cc2c(C(C)C)nn(-c3ccccc3)c2Oc2cccc(F)c2)C2CC2)c1 | 2 | -0.18
COc1ccc(CN(Cc2ccccc2)[C@@H](C)c2ccccn2)nn1 | -9 | 1.45
CN1CCN([C@H]2CCN(C(=O)c3ccc4cc[nH]c4c3)C[C@H]2CCCO)CC1 | 4 | -0.68
c1cc(-c2ncc(-c3ccncn3)s2)ccn1 | 6 | -0.91
CCc1cn[nH]c1[C@H]1CCCN(c2ncc(C#N)c(N)n2)C1 | 13 | -1.75
CC(=O)N(C)Cc1nc(C2(c3ccc(F)cc3)CCCCC2)no1 | -3 | 0.51
CCn1ncc(C(=O)N2CCCC[C@H]2c2n[nH]c(C(C)C)n2)n1 | -10 | 1.41
O=C(CCNC(=O)OCC(F)(F)F)NCC1(O)CCCCCC1 | 2 | -0.38
CCOc1ccc(-n2ccn3c(C[C@@H](C)CC(=O)Nc4ccc(C)c(F)c4)nnc3c2=O)cc1 | -10 | 1.45

Compound | % Inhibition [%] | Z score
Cn1ccnc1C(=O)N1C[C@@H]2CCC[C@@H](C2)C1 | -6 | 0.89
COCc1cc(N2CCN(C3CC3)C(=O)C2)nc(C(C)(C)C)n1 | -25 | 3.43
Cc1nc(-c2cnc(-c3cccnc3)nc2C)n([C@H]2CCS(=O)(=O)C2)n1 | -3 | 0.42
CCn1cc(S(=O)(=O)NC2CN(C)CC2C)cn1 (centres undefined) | -4 | 0.81
O=C(O)[C@H]1CCCN(C(=O)C2Cc3ccccc3C2)C1 | 10 | -1.76
C[C@H]1CN(CC(=O)N2CCNC(=O)C2)c2ccccc21 | -4 | 0.5
CC(C)n1nccc1-c1ccc(N(C)C)nc1 | -6 | 0.64
Cc1cc(C)c(S(=O)(=O)N2CCN(C)[C@@]3(CCNC(=O)CC3)C2)c(C)c1 | -13 | 1.75
CCN(CC)C(=O)N1CCCC1CC(O)c1ccco1 (centres undefined) | -13 | 1.12
Cc1cc(Cl)ccc1NC(=O)CCc1c(C)nn(-c2cc(N(C)C)ncn2)c1C | -15 | 2.67
O=C(NC[C@H]1CCOC1)c1ccc(Oc2ccc(F)cc2F)cc1 | -5 | 0.63
Cc1ccc(C)c(NC(=O)c2c3c(nc4ccccc24)C(=O)N(C2CCCCC2)C3)c1 | -3 | 0.28
Nc1c(C(=O)N2CCCC2)nsc1C(=O)NCc1ccc(F)cc1F | -5 | 1.07
CCCN1CCN(C(=O)CCc2nc3ccccc3[nH]2)[C@H]2CS(=O)(=O)C[C@H]21 | 3 | -0.62
CC(C)c1nnc(C2CCN(C(=O)c3cnc4ccccc4n3)CC2)o1 | 10 | -1.35
CCc1ccc([C@@H]2CN(Cc3ncnn3C)CCO2)cc1 | -6 | 0.76
COCCN(C)S(=O)(=O)c1ccc(Cl)c(F)c1Cl | -12 | 1.59
Cc1ccc(Cl)cc1S(=O)(=O)Nc1cnc2ccnn2c1 | 8 | -1.1
CCN(Cc1noc(-c2ccccc2)n1)[C@H]1CCS(=O)(=O)C1 | -8 | 1.58
Cc1cc(C)cc(NCc2cn(-c3ccc(C(=O)O)s3)c3ccccc23)c1 | -12 | 1.55
COc1cc(Cl)ccc1-c1nc(C)nc(N2CCCC2)c1N | 1 | -0.19
